According to patent US10370538B2 (priority 2015, dated 2019):
Read-outs that look alike come from different tables or passages of the source.

How the values were obtained:
M. smegmatis = test system: M. smegmatis
Description: FIGS. 5A-5C illustrate freshly cultured E. coli (TOP10), S. pneumoniae, S. aureus, S. sanguinis, C. propinquum, C. striatum and M. smegmatis were incubated with PBS, 10 μM of TG, TG-DNB1 or TG-DNB2 at room temperature for 1 h. Cells were washed stringently with PBS for 3 times then fixed in 10% formalin solution for 30 min before vizualized with a confocal microscope (63×/oil, Ex/Em-FITC).
FIG. 5C is a graphical plot of the mean fluorescence intensity from flow cytometry for indicated strains and probes. The fold increasing (F/FPBS) was calculated by normalizing against the fluorescence intensity of PBS-treated cells. Experiments were performed twice with similar results.
FIG. 8A is a series of digital overlay images. Freshly cultured E. coli (TOP10), E. coli expressing TEM1-β-lactamase, S. pneumoniae, S. aureus, S. sanguinis, C. propinquum, C. striatum, and M. smegmatis were incubated with PBS, 10 μM CDG1, CDG-DNB1, or CDG-DNB2 at room temperature for 1 h. Cells were washed 3 times PBS and then fixed in 10% formalin solution for 30 min before analyzed with a confocal microscope under 63×/oil, Ex/Em-FITC. Images show an overlap of bright field and green fluorescence.
FIG. 8C is graph illustrating the mean values of fluorescence intensity collected by flow cytometry were plotted with GraphPad PRISM 5. The fluorescence intensity of PBS treated cells of each strain was arbitrarily set as 1 to show the fold increasing (F/FPBS).
The TG-DNB analogues were further tested with a commonly used laboratory mycobacterium strain Mycobacterium smegamatis (M. smegmatis). E. coli strain TOP10, Streptococcus strains S. pneumoniae and S. sanguinis, Staphylococcus aureus, Corynebacteria propinquum and C. striatum were used as controls. S. pneumoniae and S. aureus are frequently found in the human respiratory tract and the skin (van der Poll & Opal (2009) Lancet 374:1543-1556; Cole et al., (2001) Clin. Diagn. Lab. Immunol. 8:1064-1069). Corynebacteria commonly colonize the skin and mucous membranes of human (Watkins et al., (1993) Clin. Infect. Dis. 17:21-25). S. sanguinis is a normal inhabitant of the human mouth where it is often found in saliva (Paik et al., (2005) Infect. Immun. 73(9):6064-6074). Among these control strains, E. coli is gram negative, all the other strains are gram positive with a thick cell wall.

BCG = conditions: flow cytometry, 10 μM, room temperature, 1 h
Description: FIG. 9A is a series of images showing an overlap of bright field and green fluorescence. Freshly cultured BCG and Mycobacterium tuberculosis H37Rv were incubated with PBS, 10 μM CDG-1, or CDG-DNB2 at room temperature for 1 h. Cells were washed 3 times with PBS and then fixed in 10% formalin solution for 30 min before analyzed with a confocal microscope under 63×/oil, Ex/Em-FITC.
FIG. 9C illustrates a pair of graphs showing the mean values of fluorescence intensity collected by flow cytometry. The fluorescence intensity of PBS-treated cells of each strain was arbitrarily set as 1 to show the fold increasing (F/FPBS).
Without inclusion of the DprE-1-targeting group, CDG-1 can only be hydrolyzed by the β-lactamase BlaS expressed in M. smegmatis. […] Dual-targeting of BlaC and DprE1 in BCG and H37Rv: To estimate whether CDG-DNB2 can be utilized for the diagnosis of pathogenic mycobacteria, Bacillus Calmette-Guérin (BCG) and Mycobacterium tuberculosis (H37Rv), were tested. BCG is a vaccine prepared from the live bovine tuberculosis bacillus Mycobacterium bovis. It is widely used as an attenuated tuberculosis model due to its high similarity to human Mycobacterium tuberculosis. H37Rv is a typical strain of human Mycobacterium tuberculosis and expresses both β-lactamase BlaC and DprE1. […]

[1] = 10 μM, room temperature, 1 h, washed with PBS

Row | Structure (SMILES) | fluorescence labeling of M. smegmatis versus control strains (confocal images) (M. smegmatis) | fluorescence labeling of M. smegmatis versus control strains (confocal images) (M. smegmatis; [1]) | fold increase of fluorescence intensity versus PBS treatment (F/FPBS) (M. smegmatis) [fold] | other results
1 | Cc1cc(OCCn2cc(CNC(=O)c3cc([N+](=O)[O-])cc([N+](=O)[O-])c3)nn2)ccc1-c1c2ccc(=O)cc-2oc2cc(Oc3ccc(OCC4=C(C(=O)O)N5C(=O)[C@@H](NC(=O)Cc6ccccc6)[C@H]5SC45CC5)cc3)ccc12 [CDG-DNB1] | intense fluorescence signals compared to control bacterial strains | – | – | fluorescence intensity relative to CDG-DNB2 (M. smegmatis): half of the intensity of CDG-DNB2
2 | Cc1cc(OCCNC(=O)c2cc([N+](=O)[O-])cc([N+](=O)[O-])c2)ccc1-c1c2ccc(=O)cc-2oc2cc(OCc3ccc(OCC4=C(C(=O)O)N5C(=O)[C@@H](NC(=O)Cc6ccccc6)[C@H]5SC45CC5)cc3)ccc12 [CDG-DNB2] | – | intense fluorescence signals compared to control bacterial strains | – | fold increase of fluorescence intensity versus PBS treatment (F/FPBS) (M. smegmatis; flow cytometry, 10 μM, room temperature, 1 h, washed): 80 fold; fold increase of fluorescence intensity over control levels, BCG (BCG): about 80 fold
3 | Cc1ccccc1-c1c2ccc(=O)cc-2oc2cc(O)ccc12 [TG, Tokyo Green, reference compound] | – | Neither the solvent PBS (phosphate-buffered saline) nor the Tokyo Green (TG) fluorophore alone showed any fluorescence staining | – | –
4 | Cc1cc(OCCn2cc(CNC(=O)c3cc([N+](=O)[O-])cc([N+](=O)[O-])c3)nn2)ccc1-c1c2ccc(=O)cc-2oc2cc(O)ccc12 [TG-DNB1] | much higher fluorescence labeling of M. smegmatis than of control strains | – | 50 | –
5 | Cc1cc(OCCNC(=O)c2cc([N+](=O)[O-])cc([N+](=O)[O-])c2)ccc1-c1c2ccc(=O)cc-2oc2cc(O)ccc12 [TG-DNB2] | much higher fluorescence labeling of M. smegmatis than of control strains | – | 150 | –
